Test results taken from PubChem BioAssay AID1347430 (National Center for Advancing Translational Sciences (NCATS), 2020).
Out of some 91,000 compounds screened, about 130 (0.14%) were called active. Inconclusive means that the source gave no clear call. Such entries were picked first, then a sample of the others. Calls follow the shape of the dose curve; as a rule, active = well fitted inhibition curve with a large enough effect; inconclusive = small, poorly fitted or top-dose-only effect; inactive = flat fitted curve, though single readings scatter. Potencies of inconclusive entries are doubtful fits and often do not repeat.

These compounds were tested on Uracil-DNA glycosylase (assay: Primary qHTS assay for inhibitors of Activation Induced Cytidine Deaminase (AID): UDG Counterscreen signal). Details: FRET deamination/UDG coupled assay, UDG read, 4 h; series mostly up to 115 µM.
Also: nearly all actives have a fitted effect of over 65% in size.
Potency is read from the fitted curve at half-maximal effect; tags tell the direction and shape of the fitted curve.

SMILES	Potency
OC(COCc1ccccc1F)Cn1nnc(-c2cccnc2)n1 (stereo not given)	inactive
CCN(C(=O)c1nn(-c2ccc(C)cc2)c(=O)c2c1c1ccccc1n2C)c1ccc(F)cc1	inconclusive: 89.1 µM [inhibitor, partial curve, poor fit]
NCc1ccc(CN2CCCCCCC2)cc1	inactive
Fc1ccc(OCc2noc(-c3ccco3)n2)c(Br)c1	inactive
CC(C)(C)OC(=O)N1CCC(c2c(C(=O)N3CCC(c4ccccc4)C3)cnn2-c2ccc(Cl)cc2)CC1 (stereo not given)	inconclusive: 56.2 µM [inhibitor, partial curve, poor fit]
CN1C(=O)Cc2cc(S(=O)(=O)CCC(=O)N3CCN(c4cccc(Cl)c4)CC3)ccc21	inconclusive: 89.1 µM [inhibitor, single point]
Nc1nc2ccc([N+](=O)[O-])cc2[n+]([O-])n1	inconclusive: 79.4 µM [inhibitor, partial curve, poor fit]
Cc1cccc(CCNC(=O)c2ccc3c(c2)nc2n3CCCCC2)c1	inconclusive: 89.1 µM [inhibitor, single point]
C=CCNC(=O)c1cc(-c2cccc(C)c2)nc2ccccc12	inconclusive: 100 µM [inhibitor, single point]
CCOc1cccc(OCCCn2c(-c3ccc(Br)cc3)nc3ccccc3c2=O)c1	inconclusive: 100 µM [inhibitor, partial curve, poor fit]
CCCSc1ccc(C(=O)CCN(C)C)cc1	inactive
CCC(NC(=O)C1CC1)c1ccccc1 (stereo not given)	inactive
Cc1cc2c(cc3c(SCC(=O)Nc4cccc(Cl)c4C)nnc(C)n32)o1	inconclusive: 89.1 µM [inhibitor, single point]
COc1ccc(/C=C/C(=O)Nc2ccc(Cl)c(Cl)c2)cc1	inactive
CC(=O)N1c2c(cc(Br)cc2S(=O)(=O)N2CCN(c3ccccc3)CC2)CC1C (stereo not given)	inconclusive: 14.1 µM [inhibitor, full curve, poor fit]
Cc1oc(-c2ccccc2Cl)nc1CS(=O)CC(=O)NCc1ccccc1Cl (stereo not given)	inconclusive: 89.1 µM [inhibitor, single point]
CCN(CC)c1ccc(NC(=O)CN2CCN(S(=O)(=O)c3cc(Cl)ccc3OC)CC2)cc1	inconclusive: 22.4 µM [inhibitor, full curve]
CCOC(=O)c1ccc(NC(=O)c2ncoc2-c2ccc(OC)c(OC)c2)cc1	inactive
CCc1ccc(-c2nc(CN3CCCC(C(=O)NCc4ccc(C)cc4)C3)c(C)o2)cc1 (stereo not given)	inconclusive: 89.1 µM [inhibitor, partial curve, poor fit]
CC(=O)C1=C(C)OC(=O)C1(NC(=O)c1ccccc1)C(F)(F)F (stereo not given)	inactive
COc1ccc(-c2noc(CSc3nnc(Cc4ccccc4)n3-c3ccccc3)n2)cc1OC	inconclusive: 56.2 µM [inhibitor, partial curve, poor fit]
O=C(CN1CCN(CC(=O)Nc2ccccc2C(=O)c2ccccc2)CC1)Nc1ccc(F)cc1	inactive

SMILES	Potency
Cc1cc(C)cc(NC2=C(c3ccccc3)C(=O)c3ccccc32)c1	inconclusive: 89.1 µM [inhibitor, partial curve, poor fit]
Cc1ccc([N+](=O)[O-])cc1S(=O)(=O)Nc1cccc(C#Cc2cccs2)c1	inactive
CCCCCn1nc(C(=O)Nc2ccc(C(=O)NC(C)(C)C)cc2)c2ccccc2c1=O	inactive
CCOC(=O)c1cnc2c(ccc3ccccc32)c1Nc1ccc(OCC)cc1	inconclusive: 100 µM [inhibitor, single point]
Cc1oc2ncn(CC(C)C)c(=O)c2c1C(=O)NCCCN1CCC(C)CC1	inconclusive: 89.1 µM [inhibitor, partial curve, poor fit]
COC(=O)c1cccc(NC(=O)CN2CCN(c3oc(-c4ccco4)nc3C#N)CC2)c1	inactive
COc1cc(NC(=O)N2CCC3(CC2)Nc2ccccc2-n2cccc23)cc(OC)c1OC	inconclusive: 89.1 µM [inhibitor, single point]
CCNC(=O)CC1C(=O)N(c2ccc(C)cc2)C(=O)N1CCC(C)C (stereo not given)	inconclusive: 89.1 µM [inhibitor, partial curve, poor fit]
Cc1cc(C)c(NC(=O)CCCn2c(C)c3cnn(-c4ccccc4)c(=O)c3c2C)c(C)c1	inconclusive: 89.1 µM [inhibitor, single point]
O=[N+]([O-])c1cc(-c2nc(-c3ccccn3)no2)ccc1NCc1ccccc1	inconclusive: 89.1 µM [inhibitor, single point]
COCCCNC(=O)CCC(=O)NNc1nc2ccccc2c2nc(-c3ccccc3)nn12	inconclusive: 22.4 µM [inhibitor, partial curve, poor fit]
CC(=O)Nc1ccccc1-c1nc2ccccc2n(C(C)C(=O)c2ccc(C)c(C)c2)c1=O (stereo not given)	inconclusive: 28.2 µM [inhibitor, partial curve, poor fit]
Cc1ccc(C)c(NC(=O)Cn2c(=O)oc3cc(S(=O)(=O)NCc4ccccc4)ccc32)c1	inactive
CC(=O)c1ccc(N2CCN(C(=O)Cn3ncc4c3-c3ccccc3OC4)CC2)cc1	inconclusive: 89.1 µM [inhibitor, partial curve, poor fit]
CC(=O)Nc1ccc2nc(SCc3ccccc3)sc2c1	inconclusive: 100 µM [inhibitor, single point]
Clc1ccc(CN2CCc3nc(Nc4ccc5c(c4)OCCO5)ncc3C2)cc1	inconclusive: 39.8 µM [inhibitor, partial curve, poor fit]
COc1ccc(NS(=O)(=O)c2ccc(OCC(=O)NCc3ccccc3OC)c(C)c2)cc1	inconclusive: 89.1 µM [inhibitor, single point]
COc1cc(OC)cc(C(=O)Nc2ccc3oc(-c4ccc(Cl)cc4)nc3c2)c1	inconclusive: 89.1 µM [inhibitor, single point]
CCCC(=O)Nc1cccc(-c2nc3cc(C)cc(C)c3o2)c1C	inconclusive: 70.8 µM [inhibitor, single point]
COc1cccc(CN(C)Cc2cc(C)no2)c1OC	inactive
Cc1cc(Nc2ccc(C(C)C)cc2)nc(-n2nc(C)cc2C)n1	inconclusive: 39.8 µM [inhibitor, partial curve, poor fit]
O=C(NCc1ccccc1)c1cc2ccccc2o1	inactive

SMILES	Potency
CCCCN(CC)CCCNC(=O)C1CCN(c2nc3ccc(CC)cc3s2)CC1	inconclusive: 89.1 µM [inhibitor, partial curve, poor fit]
COc1ccc(Cn2c(=O)c3ccccc3n3c(-c4cccc(OC)c4O)nnc23)cc1	inactive
O=C(NCc1ccc2c(c1)CCN2C(=O)c1ccc(Cl)cc1)c1ccco1	inconclusive: 100 µM [inhibitor, single point]
Cc1cccc(C)c1OCCn1c(C2CC(=O)N(Cc3ccc(F)cc3)C2)nc2ccccc21 (stereo not given)	inconclusive: 79.4 µM [inhibitor, partial curve]
O=C(CCS(=O)(=O)c1cccc2nonc12)Nc1cccc(F)c1	inconclusive: 79.4 µM [inhibitor, partial curve, poor fit]
CCOC(=O)c1scc(-c2ccccc2)c1S(=O)(=O)N1CCN(c2ccccc2OC)CC1	inconclusive: 100 µM [inhibitor, single point]
O=C(Nc1c(Cl)cccc1Cl)c1cc(-c2cccc(O)c2)on1	inconclusive: 89.1 µM [inhibitor, partial curve, poor fit]
O=C(CCC1N=C2c3ccccc3N=C(SCc3ccc(F)cc3)N2C1=O)NC1CCCCC1 (stereo not given)	inconclusive: 89.1 µM [inhibitor, single point]
Cc1ccc(S(=O)(=O)N(CC(=O)Nc2ccc3c(c2)OCO3)c2ccc(C)c(Cl)c2)cc1	inconclusive: 89.1 µM [inhibitor, single point]
CC(=O)N1N=C(c2c(-c3ccccc3)c3cc(Cl)ccc3n(C)c2=O)CC1c1cccs1 (stereo not given)	inactive
O=C(CCc1ccccc1)NCc1ccc2c(c1)CCN2C(=O)c1ccc(Cl)cc1	inconclusive: 89.1 µM [inhibitor, single point]
CC(C)=CCOc1ccc2c(=O)c(Oc3ccccc3)c(C)oc2c1	inconclusive: 89.1 µM [inhibitor, single point]
COc1cc(-c2nnn(CC(=O)NCc3ccccc3)n2)cc(OC)c1OC	inconclusive: 70.8 µM [inhibitor, partial curve, poor fit]
CC(=O)Nc1ccc(NS(=O)(=O)c2cc3c4c(c2)CC(=O)N4CCC3)cc1	inconclusive: 89.1 µM [inhibitor, partial curve, poor fit]
O=C(CCC1CCCC1)N1CCN(C(=O)c2cc(=O)c3ccccc3o2)CC1	inactive
O=C1Cc2cc(-c3csc(Nc4ccccc4Cl)n3)ccc2N1	inconclusive: 50.1 µM [inhibitor, partial curve, poor fit]
Cc1c(CC(=O)O)c(=O)oc2cc(OCc3ccccc3F)ccc12	inactive
S=C(NC(=NC=C(Cl)Cl)c1ccc(Cl)cc1)Nc1ccc(Cl)cc1	inactive
CC(C)(C)OC(=O)N1CCC(c2c(C(=O)N3CCN(Cc4ccccc4)CC3)cnn2-c2ccc(Cl)cc2)CC1	inconclusive: 89.1 µM [inhibitor, partial curve, poor fit]
O=C(Nc1cccc(C(F)(F)F)c1)C1CCN(S(=O)(=O)c2cccs2)CC1	active: 79.4 µM
CCCOC(=O)Nc1ccccc1N=C1CCC/C1=C/c1ccccc1	inactive
